In the supplement of paper PMC4604168 (melanoma cell lines):
This is one part of the list. Most values come without repeats; read them as rough.

Key:
Assay in all cases: cell count relative to DMSO control; melanoma cells; higher = more viable cells
Conditions in all cases: library dose: standard library concentration; 72 h
SkMel28 = system: SkMel28
SkMel2 = system: SkMel2
SkMel30 = system: SkMel30
SkMel5 = system: SkMel5
UACC257 = system: UACC257
UACC62 = system: UACC62
WM115 = system: WM115
WM1716 = system: WM1716
WM1745 = system: WM1745
WM3526 = system: WM3526
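Also: cells treated in 1,536-well plates, then fixed and DAPI-stained, with nuclei counted from automated high-throughput microscope images.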

Row | Structure (SMILES) | cell count (SkMel28) [%] | cell count (SkMel2) [%] | cell count (SkMel30) [%] | cell count (SkMel5) [%] | cell count (UACC257) [%] | cell count (UACC62) [%] | cell count (WM115) [%] | cell count (WM1716) [%] | cell count (WM1745) [%] | cell count (WM3526) [%]
1 | Cc1nc(Nc2ncc(C(=O)Nc3c(C)cccc3Cl)s2)cc(N2CCN(CCO)CC2)n1 [dasatanib] + C[C@]1(c2nc3c(C(N)=O)cccc3[nH]2)CCCN1 [Veliparib] (first compound 0.02 µM, partner dose 7 µM) | 60.9 | 95.7 | 90.1 | 70.4 | 85.7 | 79.7 | 48.8 | 59.3 | 49.6 | 99.9
2 | CO[C@@H]1[C@H](N(C)C(=O)c2ccccc2)C[C@H]2O[C@]1(C)n1c3ccccc3c3c4c(c5c6ccccc6n2c5c31)C(=O)NC4 [Midostaurin] + CC(C)CCN1c2nc(Nc3cc(F)c(O)c(F)c3)ncc2N(C)C(=O)C1C [BID1870] (first compound 0.4 µM, partner dose 1 µM) | 32.5 | 44 | 52 | 51.4 | 52.1 | 64.3 | 36.5 | 43.9 | 33.3 | 51.4
3 | OCCn1cc(-c2cnc3nnn(Cc4ccc5ncccc5c4)c3n2)cn1 + CCCCCCCCCCCC1=C(O)C(=O)C=C(O)C1=O [Embelin] (first compound 5 µM, partner dose 6 µM) | 95.2 | 96.2 | 110 | 108 | 96 | 90.4 | 86.1 | 76.4 | 73 | 101
4 | NC(=O)Nc1cc(-c2cccc(F)c2)sc1C(=O)N[C@H]1CCCNC1 + COc1cc2ncnc(Nc3ccc(Oc4ccccc4)cc3)c2cc1OC [SrcI1] (first compound 0.1 µM, partner dose 10 µM) | 27.3 | 79.5 | 59.6 | 61.1 | 76.5 | 42 | 63.8 | 52.1 | 39.5 | 35.8
5 | CO[C@@H]1[C@H](N(C)C(=O)c2ccccc2)C[C@H]2O[C@]1(C)n1c3ccccc3c3c4c(c5c6ccccc6n2c5c31)C(=O)NC4 [Midostaurin] + COc1ccc2c(c1)CCC1C2CCC2(C)C(NCCCCCCN3C(=O)C=CC3=O)CCC12 [U73122] (first compound 0.4 µM, partner dose 2 µM) | 57.5 | 61 | 63.7 | 45.9 | 59.6 | 45.9 | 29.1 | 39.8 | 34.4 | 58.8
6 | NCC(=O)Nc1ccc(-n2nc(C(F)(F)F)cc2-c2ccc3c(ccc4ccccc43)c2)cc1 + O=C(Nc1ccccc1)c1cc([N+](=O)[O-])ccc1Cl [GW9662] (first compound 5 µM, partner dose 10 µM) | 22.1 | 34.4 | 53.6 | 55.4 | 65 | 71.8 | 55.3 | 91.7 | 74.2 | 47.1
7 | CO[C@@H]1[C@H](N(C)C(=O)c2ccccc2)C[C@H]2O[C@]1(C)n1c3ccccc3c3c4c(c5c6ccccc6n2c5c31)C(=O)NC4 [Midostaurin] + NC(=O)Nc1cc(-c2cccc(F)c2)sc1C(=O)N[C@H]1CCCNC1 [AZD7762] (first compound 0.4 µM, partner dose 0.1 µM) | 32.5 | 52.4 | 78.9 | 60.9 | 76.8 | 64.3 | 42 | 41.1 | 22.4 | 46.5
8 | C=CCn1c(=O)c2cnc(Nc3ccc(N4CCN(C)CC4)cc3)nc2n1-c1cccc(C(C)(C)O)n1 + CO[C@@H]1[C@H](N(C)C(=O)c2ccccc2)C[C@H]2O[C@]1(C)n1c3ccccc3c3c4c(c5c6ccccc6n2c5c31)C(=O)NC4 [Midostaurin] (first compound 0.1 µM, partner dose 0.4 µM) | 21.7 | 37.2 | 57.1 | 39.5 | 66.2 | 65.7 | 25.6 | 42 | 16.2 | 44.3
9 | CN(C)S(=O)(=O)c1ccc2c(c1)/C(=C/c1cc3c([nH]1)CCCC3)C(=O)N2 + CN(NC(=O)CC(=O)NN(C)C(=S)c1ccccc1)C(=S)c1ccccc1 [STA4783] (first compound 2 µM, partner dose 0.03 µM) | 34.4 | 61 | 89 | 39.1 | 88.6 | 55.5 | 35.6 | 67.9 | 16.3 | 87.6
10 | NCC(=O)Nc1ccc(-n2nc(C(F)(F)F)cc2-c2ccc3c(ccc4ccccc43)c2)cc1 + N#Cc1c(O)c2c(-c3ccc(-c4ccccc4O)cc3)csc2[nH]c1=O [A769662] (first compound 5 µM, partner dose 10 µM) | 17.2 | 20.8 | 42.7 | 53.2 | 74.5 | 56.4 | 101 | 88.5 | 88.9 | 41.4
11 | Cc1nc(Nc2ncc(C(=O)Nc3c(C)cccc3Cl)s2)cc(N2CCN(CCO)CC2)n1 [dasatanib] + Cn1c(Nc2ccc(C(F)(F)F)cc2)nc2cc(Oc3ccnc(-c4ncc(C(F)(F)F)[nH]4)c3)ccc21 [CHIR265] (first compound 0.02 µM, partner dose 0.4 µM) | 31.5 | 47.2 | 76.7 | 33.5 | 75.5 | 40.8 | 20.3 | 41.1 | 25.1 | 45.2
12 | NCC(=O)Nc1ccc(-n2nc(C(F)(F)F)cc2-c2ccc3c(ccc4ccccc43)c2)cc1 + O=C1NC(=O)/C(=C/c2ccc(-c3ccc(F)cc3O)o2)S1 [AS252424] (first compound 5 µM, partner dose 5 µM) | 20.5 | 34.6 | 52.5 | 54.1 | 71.8 | 86.9 | 87.7 | 69.2 | 85.5 | 40.8
13 | C=CCn1c(=O)c2cnc(Nc3ccc(N4CCN(C)CC4)cc3)nc2n1-c1cccc(C(C)(C)O)n1 + CCc1ccc(CCOc2ccc(CC3SC(=O)NC3=O)cc2)nc1 [pioglitazone] (first compound 0.1 µM, partner dose 10 µM) | 36.9 | 80.5 | 57.9 | 46.3 | 88.3 | 67.8 | 66.8 | 77.6 | 50.7 | 67
14 | C[C@]1(c2nc3c(C(N)=O)cccc3[nH]2)CCCN1 [Veliparib] + Oc1nc(-c2ccc(C(F)(F)F)cc2)nc2c1CSCC2 [XAV939] (first compound 7 µM, partner dose 10 µM) | 69.5 | 86.6 | 99.4 | 70.5 | 78.2 | 81.2 | 59.4 | 79.9 | 73.3 | 94.8
15 | CO[C@@H]1[C@H](N(C)C(=O)c2ccccc2)C[C@H]2O[C@]1(C)n1c3ccccc3c3c4c(c5c6ccccc6n2c5c31)C(=O)NC4 [Midostaurin] + O=C(O)c1ccc(-c2c[nH]c3ncc(-c4ccccc4)cc23)cc1C1CCCC1 [GSK650394] (first compound 0.4 µM, partner dose 0.8 µM) | 56.1 | 47.1 | 96.2 | 69.2 | 64.3 | 87.3 | 56.1 | 50.6 | 28.1 | 83
16 | NC(=O)Nc1cc(-c2cccc(F)c2)sc1C(=O)N[C@H]1CCCNC1 + CC(C)CCN1c2nc(Nc3cc(F)c(O)c(F)c3)ncc2N(C)C(=O)C1C [BID1870] (first compound 0.1 µM, partner dose 1 µM) | 48.6 | 87.6 | 88.1 | 83.4 | 94.7 | 67.2 | 77.9 | 45.7 | 57 | 64.4
17 | C[C@]1(c2nc3c(C(N)=O)cccc3[nH]2)CCCN1 [Veliparib] + NCC(=O)Nc1ccc(-n2nc(C(F)(F)F)cc2-c2ccc3c(ccc4ccccc43)c2)cc1 [OSU03012] (first compound 7 µM, partner dose 5 µM) | 18.8 | 48 | 55.7 | 44.1 | 84.8 | 52.5 | 66.4 | 88 | 74.5 | 51.3
18 | Cc1nc(Nc2ncc(C(=O)Nc3c(C)cccc3Cl)s2)cc(N2CCN(CCO)CC2)n1 [dasatanib] + C=CCn1c(=O)c2cnc(Nc3ccc(N4CCN(C)CC4)cc3)nc2n1-c1cccc(C(C)(C)O)n1 [MK1775] (first compound 0.02 µM, partner dose 0.1 µM) | 40.8 | 65.9 | 74.1 | 46.2 | 67.6 | 69.1 | 41.9 | 41.7 | 24.2 | 64.7
19 | Cc1nc(Nc2ncc(C(=O)Nc3c(C)cccc3Cl)s2)cc(N2CCN(CCO)CC2)n1 [dasatanib] + CO[C@@H]1[C@H](N(C)C(=O)c2ccccc2)C[C@H]2O[C@]1(C)n1c3ccccc3c3c4c(c5c6ccccc6n2c5c31)C(=O)NC4 [Midostaurin] (first compound 0.02 µM, partner dose 0.4 µM) | 49.3 | 50.4 | 45.7 | 52.5 | 50.9 | 55.1 | 32.7 | 23.1 | 14.9 | 73.8
20 | NC(=O)Nc1cc(-c2cccc(F)c2)sc1C(=O)N[C@H]1CCCNC1 + COc1ccc(-c2ccc3c(N4CCOCC4)nc(N4C[C@@H](C)O[C@@H](C)C4)nc3n2)cc1CO [KU0063794] (first compound 0.1 µM, partner dose 0.1 µM) | 39 | 70.8 | 81.8 | 64.2 | 121 | 95.9 | 67.9 | 49 | 62 | 51.8
21 | OCCn1cc(-c2cnc3nnn(Cc4ccc5ncccc5c4)c3n2)cn1 + CN(C)S(=O)(=O)c1ccc2c(c1)/C(=C/c1cc3c([nH]1)CCCC3)C(=O)N2 [SU6656] (first compound 5 µM, partner dose 2 µM) | 44.1 | 66.2 | 80.1 | 61.2 | 73.1 | 84.7 | 60.7 | 58.6 | 67.4 | 56.9
22 | C=CCn1c(=O)c2cnc(Nc3ccc(N4CCN(C)CC4)cc3)nc2n1-c1cccc(C(C)(C)O)n1 + OCCn1cc(-c2cnc3nnn(Cc4ccc5ncccc5c4)c3n2)cn1 [PF04217903] (first compound 0.1 µM, partner dose 5 µM) | 37.7 | 84.5 | 91.9 | 57.4 | 83.5 | 73.7 | 62.1 | 81 | 45.8 | 73.9
